The whole screen tested about 310,000 compounds, of which about 2,200 (0.71%) showed an effect of 50% or more. Effects have a minus sign here. Some of the results follow.
biological target: human ether-à-go-go-related gene (hERG) potassium channel (human, UniProt Q12809); test: primary screen, population patch clamp on CHO cells stably expressing hERG
Sequence (Q12809 whole entry, looked up): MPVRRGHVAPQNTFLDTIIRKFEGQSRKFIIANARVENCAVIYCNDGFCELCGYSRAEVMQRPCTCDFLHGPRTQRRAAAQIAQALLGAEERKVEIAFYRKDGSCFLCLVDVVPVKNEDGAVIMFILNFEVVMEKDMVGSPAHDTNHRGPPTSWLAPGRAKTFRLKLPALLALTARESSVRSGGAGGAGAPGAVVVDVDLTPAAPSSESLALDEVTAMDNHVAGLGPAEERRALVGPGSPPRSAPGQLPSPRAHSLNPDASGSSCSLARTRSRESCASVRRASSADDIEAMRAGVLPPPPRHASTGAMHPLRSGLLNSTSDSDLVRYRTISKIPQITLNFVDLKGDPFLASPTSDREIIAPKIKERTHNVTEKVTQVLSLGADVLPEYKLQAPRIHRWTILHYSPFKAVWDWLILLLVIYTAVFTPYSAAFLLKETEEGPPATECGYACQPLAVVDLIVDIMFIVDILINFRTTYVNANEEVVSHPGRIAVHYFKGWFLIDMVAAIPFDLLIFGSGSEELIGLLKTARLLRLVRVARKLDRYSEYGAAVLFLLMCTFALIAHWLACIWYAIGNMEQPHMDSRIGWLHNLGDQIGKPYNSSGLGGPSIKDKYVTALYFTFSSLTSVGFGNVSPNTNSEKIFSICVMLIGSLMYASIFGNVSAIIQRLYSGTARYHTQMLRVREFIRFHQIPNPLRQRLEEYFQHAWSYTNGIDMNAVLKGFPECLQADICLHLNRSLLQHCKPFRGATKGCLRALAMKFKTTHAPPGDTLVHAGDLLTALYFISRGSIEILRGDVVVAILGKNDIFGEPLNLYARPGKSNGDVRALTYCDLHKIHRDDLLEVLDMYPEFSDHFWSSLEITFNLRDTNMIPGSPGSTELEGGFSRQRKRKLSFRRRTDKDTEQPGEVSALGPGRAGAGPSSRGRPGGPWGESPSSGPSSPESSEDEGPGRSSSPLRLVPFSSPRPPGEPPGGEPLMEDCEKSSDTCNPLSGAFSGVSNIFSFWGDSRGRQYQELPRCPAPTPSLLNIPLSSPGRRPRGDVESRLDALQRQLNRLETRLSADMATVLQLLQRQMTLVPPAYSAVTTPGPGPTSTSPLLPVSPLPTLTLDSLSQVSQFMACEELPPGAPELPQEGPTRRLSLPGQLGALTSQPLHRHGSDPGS

| SMILES | hERG current change (%, negative = inhibition) at 1uM [%] |
| --- | --- |
| COC(=O)c1ccc(NS(=O)(=O)c2cc3c4c(c2)CCN4C(=O)CC3)cc1 | 3.99 |
| COc1cc(C(=S)N2CCN(c3ccccc3Cl)CC2)cc(O)c1O | 4.08 |
| COc1cc(NC(=O)Nn2cnnc2)cc(OC)c1OC | 11.7 |
| COC(=O)c1ccccc1NC(=O)CSc1nnnn1CC(=O)O | 14.2 |
| N/C(CCN1CCOCC1)=N/O | 16.7 |
| O=C1NCCCC1C(=O)N/N=C/c1cccc(O)c1 (centres unmarked) | 15.1 |
| CN(C(=O)CCS(=O)(=O)c1ccc2c(c1)oc(=O)n2C)C1CCCCC1 | 6.38 |
| Cc1ccc(C)c(C(=O)COC(=O)c2nn(C)c(=O)c3ccccc23)c1 | -3.71 |
| O=C1CCC(C(=O)Nc2cc(C(F)(F)F)ccc2-n2cncn2)=NN1 | 7.98 |
| N#Cc1c(N2C(=O)c3ccc(C(=O)O)cc3C2=O)sc2c1CCCC2 | 18.6 |
| Nc1nc(SCC(=O)N2CCCc3ccccc32)[nH]c(=O)c1-c1ccccc1 | 11.4 |
| O=C1NCCCc2c1oc1ccc(O)cc21 | 20.2 |
| CCOc1ccccc1N(CC(=O)Nc1ccccc1)S(=O)(=O)c1ccccc1 | 12.9 |
| O=S(=O)(NCc1ccc(F)cc1)c1ccc(-n2cccn2)cc1 | 5.5 |
| CC(=O)c1c(C)[nH]c(C(=O)Nc2ccc(S(=O)(=O)N(C)C)cc2)c1C | 11.4 |
| COc1ccc(C)cc1S(=O)(=O)N(CC(=O)N1CCOCC1)c1cc(C)cc(C)c1 | -52 |
| CS(=O)(=O)CCSc1ncccc1C(=O)NCc1cccs1 | -0.093 |
| COC(=O)C1=C(C)NC(C)=C(C(=O)OC)C1c1cc2ccc(C)cc2[nH]c1=O | 12.6 |
| COc1ccc(CCNC(=O)[C@H](C)N2C(=O)N3CCc4c([nH]c5ccccc45)[C@@]3(C)C2=O)cc1OC | 8.53 |
| Nc1c2c(nc3c1CCCC3)CCCC2.O=C(O)c1cc[nH]c(=O)c1 | 3.86 |
| COc1cccc(C(=O)NCc2ccco2)c1 | 14.6 |
| O=C(/C=C/c1ccccc1Cl)Nc1cccnc1 | 14.7 |

| SMILES | hERG current change (%, negative = inhibition) at 1uM [%] |
| --- | --- |
| CCOC(=O)c1cc2sc(C)cc2n1CC(=O)N(CC)CC | 5.68 |
| Cc1occc1C(=O)NCc1ccco1 | 20.2 |
| COc1ccc2oc(=O)c(-c3nnc(N)s3)cc2c1 | 8.95 |
| O=C(COC(=O)Cc1ccccc1F)Nc1cccc(S(=O)(=O)NC2=NCCCCC2)c1 | -5.87 |
| CCN(CC)CCNC(=O)C1CCC(=O)N(c2ccc(OC)cc2)C1c1ccc(F)cc1 (centres unmarked) | 9.84 |
| Cc1ccn2c(/C=N/OCc3cccc(F)c3)c(-c3ccc(Cl)cc3)nc2c1 | 3.29 |
| O=C(Nc1nnc(C23CC4CC(CC(C4)C2)C3)s1)c1ccco1 | 13.4 |
| O=C(NCc1ccccc1)C1CC(=O)N(C2CCCCCC2)C1 (centres unmarked) | 10.7 |
| Cc1nc(-c2ccc3c(c2)CCC(=O)N3)cs1 | 13.9 |
| CCC(C)Sc1ccc([C@@H]2[C@@H]3C(=O)N(C)C(=O)[C@@H]3[C@]3(C(=O)OC)CCCCN23)cc1OC.O=C(O)C(F)(F)F (some centres unmarked) | -1.9 |
| CCOC(=O)c1c(/N=C/N(C)C)sc(/C=N/Nc2ccccc2)c1-c1ccccc1Cl | 18.7 |
| CC(=O)OCC(=O)[C@@]1(O)CC[C@H]2[C@@H]3C[C@H](C)C4=CC(=O)C=C[C@]4(C)[C@H]3[C@@H](O)C[C@@]21C | 9.99 |
| Cc1ccc(-c2nnc3c4ccccc4c(C)nn23)cc1S(=O)(=O)N1CCN(C)CC1 | 1.86 |
| Cc1cc(C)n(CC(=O)N/N=C/c2c[nH]c3ccccc23)n1 | 12.7 |
| O=C1NCCN1Cc1ccccc1 | -8.17 |
| CC1CN(C)C(C)(C)CC1(O)c1ccccc1.Cl (centres unmarked) | 7.82 |
| CC1=C(C(=O)OCc2ccc3c(c2)OCO3)C(c2ccc(Cl)cc2)NC(=O)N1 (centres unmarked) | 7.03 |
| Clc1ccc(CN2CCN(/N=C/c3ccco3)CC2)cc1 | 2.9 |
| CCOCC(=O)NCc1ccc2c(c1)OCO2 | 8.52 |
| N#Cc1c(N)c(C(=O)c2ccc(Br)cc2)n2c1CCC2 | -0.946 |
| CN(CC(=O)Nc1cccc(F)c1)C(=O)CCc1nc2sc3c(c2c(=O)[nH]1)CCCC3 | 3.83 |
| COc1ccc(CC(=O)Nc2ccc(S(=O)(=O)N3CCCC3)cc2)c(OC)c1 | -2.98 |

Source: publication PMC4336329 (PLoS ONE, 2015)
